56 compounds from ChEMBL document CHEMBL1201862, “PubChem BioAssay data set” (2004) can be followed below.

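All cell lines were grown in 96-well plates and treated with compound for 48 hours. The concentration for 50% growth inhibition is given as GI50.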 Activity calls are given as the source filed them. No stated cut-off is given here; in the data, active = GI50 up to about 1.1 µM and inactive = higher.

This assay concerns NCI-H322M. The experiment in a line: growth of human tumour cells (NCI), 48 h.
Regarding `CCN(CC)c1ccc(C(=O)c2ccccc2C(=O)O)c(O)c1`, the GI50 was inactive: > 100 µM.

On to `CC12CC(=O)C3C(CCC4=CC(=O)CCC43C)C1CC=C2CC(=O)O` (stereo unspecified), for which the GI50 is inactive: > 100 µM.

For the compound `O=C(CCCn1ccnc1[N+](=O)[O-])NCCn1ccnc1`, the GI50 was inactive: > 100 µM.

`CN(C)CCCN1c2ccccc2Sc2ccc3ccccc3c21`: the GI50 is inactive: 12.4 µM.

On to `CC(C)OC(=O)c1ccc(NCc2cc(O)ccc2O)cc1Cl`, for which the GI50 was inactive: 23.7 µM.

For the compound `O=C1CCC(CCc2nc3ccccc3[nH]2)(c2ccccc2)C(=O)N1` (stereo unspecified), the GI50 is inactive: > 100 µM.

For the compound `O=C1c2ccccc2CCC1C(O)(C(F)(F)F)C(F)(F)F` (stereo unspecified), the GI50 was inactive: > 100 µM.

Turning to `CCCCCC(=O)CCCCCCCC(O)CC(=O)OCC` (stereo unspecified), the GI50 was inactive: > 100 µM.

For `O=C(Nc1ccc2c(c1)oc(=O)c1ccccc12)C(Cl)Cl`, the GI50 was inactive: 17.6 µM.

On to `O=c1c2cccc3cccc(c4oc5c6cccc7cccc(c(=O)c5c14)c76)c32`, for which the GI50 was inactive: 24.5 µM.

In the case of `CCN1CCC(O)(c2ccc(Oc3ccccc3)cc2)C(C(=O)c2ccc(Oc3ccccc3)cc2)C1` (stereo unspecified), the GI50 was inactive: 13.6 µM.

Consider `CC(C)(C)c1cc2c(OP(c3ccccc3)c3ccccc3)c(c1)Cc1cc(C(C)(C)C)cc(c1OP(c1ccccc1)c1ccccc1)Cc1cc(C(C)(C)C)cc(c1OP(c1ccccc1)c1ccccc1)Cc1cc(C(C)(C)C)cc(c1OP(c1ccccc1)c1ccccc1)C2`, for which the GI50 was inactive: > 5 µM.

Turning to `CCCCOC(=O)CNC(=O)OCCCCC#CC#CCCCCOC(=O)NCC(=O)OCCCC`, the GI50 is inactive: > 100 µM.

Turning to `CCC/C=C1\CCC(CN(C)C)C1=O` (stereo unspecified), the GI50 was inactive: 30.5 µM.

For `O=C1CSC(c2ccc(Cl)cc2Cl)N1c1ccc(Oc2ccc(Cl)cc2)c(Cl)c1` (stereo unspecified), the GI50 was inactive: 25.1 µM.

For the compound `Oc1ccc2c(c1)OCC(O)(c1ccccc1O)C2` (stereo unspecified), the GI50 was inactive: > 100 µM.

In the case of `CCOC(=N)/C(=C1\OC(=N)C(c2ccc(Cl)cc2)=C1O)c1ccc(Cl)cc1`, the GI50 was inactive: 19.3 µM.

Regarding `O=C(/C=C/c1ccc(OCc2cccc(Cl)c2)cc1)NO`, the GI50 was inactive: 14.3 µM.

As for `Cc1ccc2c(c1)C=CC(C#N)N2C(=O)Oc1ccccc1` (stereo unspecified), the GI50 was inactive: 24.4 µM.

With `Fc1cc2nc3n(c2cc1F)C(c1c(F)cccc1F)SC3` (stereo unspecified), the GI50 is inactive: 80 µM.

On to `COc1cc2ccc1NC(=O)N1CCN(CC1)C(=O)Nc1ccc(cc1OC)-c1ccc(c(OC)c1)NC(=O)N1CCN(CC1)C(=O)Nc1ccc-2cc1OC`, for which the GI50 is inactive: > 100 µM.

Regarding `OCCN(C1=NCCN1)/[N+](=C/c1ccc(Cl)cc1)[CH-]c1ccc(Cl)cc1`, the GI50 is inactive: > 100 µM.

For the compound `CC(C)(C)c1ccc(OCCOCCOc2ccc(C(C)(C)C)cc2S(N)(=O)=O)c(S(N)(=O)=O)c1`, the GI50 is inactive: > 100 µM.

`CNCCN[C@@H]1c2cc3c(cc2[C@@H](c2cc(OC)c(O)c(OC)c2)[C@H]2C(=O)OC[C@@H]21)OCO3`: the GI50 was inactive: 1.75 µM.

For the compound `Fc1ccc(N2C(=S)SC(=N\c3ccccc3)/C2=N/c2ccccc2)cc1`, the GI50 was inactive: > 100 µM.

For `CCNC(=O)/C=C/CCC#Cc1ccc(-c2ccc(-c3cccs3)s2)s1`, the GI50 is inactive: > 100 µM.

For the compound `Cc1cn(C(Cc2ccccc2)OCCO)c(=O)[nH]c1=O` (stereo unspecified), the GI50 was inactive: > 100 µM.

Consider `COC(=O)CC1N/C(=N\C#N)N(CCc2c[nH]c3ccccc23)C1=O` (stereo unspecified), for which the GI50 was inactive: > 100 µM.

`CN(C)c1ccc(/C=C(/NC(=O)c2ccccc2)C(=O)Nc2ccccc2C(=O)O)cc1`: the GI50 is inactive: > 100 µM.

Take `CC(CN1NC12CCCC2)N1NC12CCCC2` (stereo unspecified): the GI50 was inactive: > 100 µM.

As for `COc1cccc(/C=C2/S/C(=N/Nc3nc(C)c(C(C)=O)s3)NC2=O)c1O`, the GI50 is inactive: 48.9 µM.

In the case of `O=c1c2ccccc2[se]n1-c1cccnc1`, the GI50 is inactive: 43 µM.

Regarding `CCOC(=O)/C(=C/c1ccco1)P(=O)(OCC)OCC`, the GI50 was inactive: > 100 µM.

Take `Cn1c(NN)nc(-c2ccc([N+](=O)[O-])cc2)c(C#N)c1=O`: the GI50 was inactive: 14.3 µM.

In the case of `C(/C=N/N=C1NCCCCN1)=N\N=C1NCCCCN1`, the GI50 is inactive: > 100 µM.

For the compound `O=C(CSc1nc2ccccc2c(=O)n1-c1ccccc1)N/N=C1\C(=O)Nc2ccc(F)cc21`, the GI50 was inactive: 2.07 µM.

Take `O=C(c1ccccc1)C(Nc1ccc2ccccc2c1)c1ccccc1` (stereo unspecified): the GI50 is inactive: > 66.2 µM.

As to `COC(=O)C1CC23C4=C(CCC41)CCC1CN4CC(C)C(CC(OC(C)=O)C12COC(C)=O)C43O` (stereo unspecified), the GI50 was inactive: > 100 µM.

As for `CCOC(=O)C1CCC(=O)N1C(=O)c1ccccc1Cl` (stereo unspecified), the GI50 is inactive: > 100 µM.

For `CNC(=O)N(CCC#N)CCN(CCN(C(=O)NC)c1ccccc1)C(=O)NC`, the GI50 is inactive: > 100 µM.

As to `COC(=O)N/N=C(/Cc1occc(=O)c1O)C(=O)Nc1ccc([N+](=O)[O-])cc1[N+](=O)[O-]`, the GI50 was inactive: > 100 µM.

As for `CCN(CC)c1ccc2cc(C(=O)Nc3nc(C45CC6CC(CC(C6)C4)C5)cs3)c(=O)oc2c1`, the GI50 is inactive: > 100 µM.

As for `COc1ccc(Cc2nc3cc([N+](=O)[O-])ccc3n2C[C@@H]2CCCN3CCCCC23)cc1` (stereo partly specified), the GI50 is inactive: 25.3 µM.

Take `CCOC(=O)c1ccc(/N=c2/[nH]c3ccccc3s/c2=N/c2ccc(C(=O)OCC)cc2)cc1`: the GI50 is inactive: > 100 µM.

Turning to `Cc1ccc(NC(=O)/C(CC2Nc3c(ccc4c3C(=O)c3ccccc3C4=O)NC2O)=N/NC(C)(C)C)cc1` (stereo unspecified), the GI50 is inactive: 3.29 µM.

As for `Cc1ccc(S(=O)(=O)N2CCNCCN(S(=O)(=O)c3ccc(C)cc3)CCNCC2)cc1`, the GI50 was inactive: 20.3 µM.

For `Cc1cc(NS(=O)(=O)c2ccc(Nc3c4ccccc4nc4ccc(C(=O)Nc5ccc(S(N)(=O)=O)cc5)cc34)cc2)no1`, the GI50 was inactive: > 100 µM.

On to `CC(C)C(=O)Nc1cc(C(F)(F)F)ccc1[N+](=O)[O-]`, for which the GI50 was inactive: > 100 µM.

For `CC1(C)CC(=O)c2c(nc3c(ccc4ccccc43)c2-c2ccc(NC(=O)CCCCC(=O)Nc3ccc(-c4c5c(nc6c4ccc4ccccc46)CC(C)(C)CC5=O)cc3)cc2)C1`, the GI50 is inactive: 21.6 µM.

Regarding `O=C1c2cc3c(cc2CC1Cc1ccc2c(c1)CCC2)CCC3` (stereo unspecified), the GI50 was inactive: 47.6 µM.

As to `CC1(C)[C@@H]2CC[C@]1(C)[C@H](OC(=O)/C=C/c1ccccc1)C2`, the GI50 was inactive: 21.4 µM.

Turning to `NS(=O)(=O)c1ccc(NC(=O)CC(=O)Nc2ccc(S(N)(=O)=O)cc2)cc1`, the GI50 was inactive: > 100 µM.

As to `Oc1c(Cl)cc(Cl)cc1/C=N/Nc1ccccn1`, the GI50 is inactive: 1.67 µM.

`CC(C)(O)[C@@H]1CCC(C)([C@H]2[C@@H](O)CC3(C)C4CC(OC5OC(CO)C(O)C(O)C5O)C5C(C)(C)[C@@H](OC6OCC(O)C(O)C6O)CC[C@@]56C[C@@]46CC[C@]23C)O1` (stereo partly specified): the GI50 is inactive: > 100 µM.

On to `COc1ccc(C(Cc2cc(OC)c(OC)c(OC)c2)C(=O)O)cc1` (stereo unspecified), for which the GI50 is inactive: 30.4 µM.

As to `COc1cc2ccccc2c2cc([N+](=O)[O-])oc12`, the GI50 was inactive: 1.48 µM.
